Data on 22 molecules can be found in paper PMC12136788.

B1: chr12:105536279:105536280:+_ENSG00000136051_ENST00000332180|hu_mus|FALSE|FALSE (ssRNA)
RNA: GGGAGUUCUACAGUCCGACGAUCAGCACUGAACAUGUAAUGUAAUCUGGCUGCAUCGACAGCAUUUUCAUAUACAUCAUCUAAAUAAAUCGGGAAGACAGCGCGAUGCCAGUAUAAAAAACAGCAGUCACACUGUGCUUGGACCAACAGAGGAUUGAGCAUCA
B2: chr2:42509997:42509998:+_ENSG00000143924_ENST00000318522|hu_mus|hu_hu_hu_mus_True|38_58 (ssRNA)
RNA: GGGAGUUCUACAGUCCGACGAUCUCGCUGAGUCCUCUCCUCAUAAUUAAACAGGACUACCACUGAGGCGAUAAAAUAAACUAUUUUCCCUGUGGGAAGAAGGUAAACAUUCGCUCUACAGUCCUUUCCUCGAUAACCGUAUACCAACAGAGGAUUGAGCAUCA
B3: chr4:62795864:62795865:+_ENSMUSG00000028358_ENSMUST00000107415|mus_hu|motif|central (ssRNA)
RNA: GGGAGUUCUACAGUCCGACGAUCCAGAGUCUAAAUCAAAUCUGAAGAAACAAAAUGAACCCCCAAACAAGGUAAAAAUUGCGGAAAUGUUAGGGAGAGAAAUUAUUAGGGAGUGGAGACAGUAUCUAUACUUCUCUGAAAAAUCAACAGAGGAUUGAGCAUCA
B4: chr11:72025555:72025556:-_ENSMUSG00000020801_ENSMUST00000021157|mus_mus|motif|central (ssRNA)
RNA: GGGAGUUCUACAGUCCGACGAUCCGCACACUGCGCAUUCACCAGCUCCUUGCGAAAGUGCUCAUACUGGAGCAGCUCGGACAUAUGUAAGCACUGAGGGUACUUUAGAUAUUUGGCAUAUUCUGGUUCUUUCCAGUAAAGCAACAACAGAGGAUUGAGCAUCA
B5: chr8:59488481:59488482:+_ENSG00000137575_ENST00000447182|hu_hu|FALSE|FALSE (ssRNA)
RNA: GGGAGUUCUACAGUCCGACGAUCUCCAACAUCAUUACCAGUUACAGGAGCCACCAUAUAGUUUAUACUGGAAGGUCUUGCUACCAACCCCUGAAGUGGUGCACCAGAAACCACGGCCACAUUUGCACGUAUUUCUUCUUCAUUCAACAGAGGAUUGAGCAUCA
B6: 132416488_132418784_630_CDS_ENSMUSG00000028879_ENSMUST00000030698|mouse|control|control (ssRNA)
RNA: GGGAGUUCUACAGUCCGACGAUCUUUGAUGAGUUCCAGGUCUUGCUCAGUGAUGGCCGCCUCUUCCUCCUGGCUCUGCAUUUGGUUCCACUCUUCAUGGCUGUCAAAUGAGACGAGCUGCUCUUCUCUCUGCCUGUCUUCUGCCAACAGAGGAUUGAGCAUCA
B7: chr12:25693320:25693321:+_ENSMUSG00000036333_ENSMUST00000066652|mus_hu|FALSE|FALSE (ssRNA)
RNA: GGGAGUUCUACAGUCCGACGAUCGUCAACUCUAAAUAUAGCCAGAAGAGUAAUUCCAGAUAUAAUGCAGCCAAUGAUAAAAAGGAAGAUGACAAAAGAUGGGAGACAACAUGUUUUUUUCCAUUUCUUUUUACCCUGAGUAUCCAACAGAGGAUUGAGCAUCA
B8: chr1:166823625:166823626:+_ENSG00000143157_ENST00000367875|hu_mus|FALSE|FALSE (ssRNA)
RNA: GGGAGUUCUACAGUCCGACGAUCAUCAAAGUUUAUUACUGGGAUCAGUUUCUAUCUAGGGAGUGCCAGUCCCAGUGAGCUAUGGUAAUUCUCAGGAAACAGCUAUUCUGCUCAAUAGUUGUACUGGGGCUCUGUUAGGCAUAGCAACAGAGGAUUGAGCAUCA
B9: chr7:135839730:135839731:+_ENSMUSG00000042105_ENSMUST00000151237|mus_hu|motif|central (ssRNA)
RNA: GGGAGUUCUACAGUCCGACGAUCAUGGUACUUUAUUUUAAUAAUCACAAGAUUUAACACGUAAAAAAAAAAGAUAGCACGGAUAAAUAACAAAAGUGGAAUGCUUAUCAAAGUAACGACAUAAUGUUCAGUUGAGAAUCAGUCCAACAGAGGAUUGAGCAUCA
B10: chr18:34659469:34659470:-_ENSMUSG00000036501_ENSMUST00000040506|mus_mus|FALSE|FALSE (ssRNA)
RNA: GGGAGUUCUACAGUCCGACGAUCGUCAUUUAUGGCUGUUUGAGAUUAUGGCAGAAGAUCAGCCUGUAGUUCCUCAUUGAAGAAACGCAGAACUCGAUCAGUACUUCAGAACUUAAUCGUUGGAACCGCGAAGCCCCGUUCCCCCAACAGAGGAUUGAGCAUCA
B11: chr5:150025729:150025730:+_ENSMUSG00000041264_ENSMUST00000121416|mus_mus|motif|central (ssRNA)
RNA: GGGAGUUCUACAGUCCGACGAUCCACGAAGGCUCUCUUCUGAUCUUCUUUCCGAGGCUGAUUCUGUGCUGACCUGGCUGCGGCUGUUUUAGAAGACGCUGUGGUUUCUCGUUUUCUCAAAUUAGAUGCCUGAGAUUUACCAGGCAACAGAGGAUUGAGCAUCA
B12: 85416237_85420388_240_3pUTR_ENSMUSG00000001783_ENSMUST00000001834|mouse|control|control (ssRNA)
RNA: GGGAGUUCUACAGUCCGACGAUCAGCCACCAACACCACCACCUCGACAGGCGUUCCUUAAUUCCUCAAACAUUAGUUUUUCCAGAGCAUCAUUCACAUAAAACACUCCUUCAACCUGCAUGUUGGGCACAAAGCCCUUCUUGACAACAGAGGAUUGAGCAUCA
B13: 29839587_29839707_1158_CDS_ENSG00000197321_ENST00000375400|human|control|control (ssRNA)
RNA: GGGAGUUCUACAGUCCGACGAUCCUGCAGGGAGGAGCUGUGGGCGUGCUUGGGGGACCGUGGCACUUCAGUGAAGGAGGAGUCUCGCCCAGAGAAAGAGAAGGUCGAGGAACUCUCGGCUGCUGGGGACAGGUCAUGGGCCUGCAACAGAGGAUUGAGCAUCA
B14: 103538673_103541994_1797_CDS_ENSMUSG00000033004_ENSMUST00000161008|mouse|control|control (ssRNA)
RNA: GGGAGUUCUACAGUCCGACGAUCUGCCUGGAAUCCAAAUCGACCUGCUUUAUUCUGCACAGCUCUUCUACUGCUUUCCCAGUUAAGAAGGUCAUUGAGGUAACUUUAUUCCCCAGAUCCCGGGAGUUGUCCACAUGAACAGAUCAACAGAGGAUUGAGCAUCA
B15: chr2:26769575:26769576:-_ENSMUSG00000015790_ENSMUST00000167661|mus_mus|FALSE|FALSE (ssRNA)
RNA: GGGAGUUCUACAGUCCGACGAUCUGGGCUGUUCUCCGGAACAAAGGGCUUCCUGUUUUCUGUGAGCCUCACUAUGCCAACUAGGUCUACUUCUCCCAGAACCUGGCCUUUCUGUCUGGUCUCAGGAUUCACUUUCUUCCUGGGCAACAGAGGAUUGAGCAUCA
B16: chr17:21088332:21088333:+_ENSMUSG00000007564_ENSMUST00000007708|mus_hu|FALSE|FALSE (ssRNA)
RNA: GGGAGUUCUACAGUCCGACGAUCUCACUUCGGGUCCUUUCAACCCCAAGGGCCAAGGCGAUGGUGGACAGCUUCUUGAUGCUGUUGAGGCGAAGCUGAACGUCCUCAUUGCGGAGUUCGUCUAUGAGCACCGCGAUGGGGUACCAACAGAGGAUUGAGCAUCA
B17: chr1:220276048:220276049:+_ENSG00000067704_ENST00000302637|hu_hu|hu_hu_hu_mus_True|88_98 (ssRNA)
RNA: GGGAGUUCUACAGUCCGACGAUCGCAAAUUGCCUGGUUGGCUGGAAUCGUCCAAGGCUGGGUGGUCCAAACUAAAACGCUAACAGGGGAUGAGGCAUCUGUAAGAGACUCCAACUUCGGAGGAGGUCUCAGGAGGGGGAAUCUCAACAGAGGAUUGAGCAUCA
B18: 116406472_116406720_1001_3pUTR_ENSMUSG00000020802_ENSMUST00000082152|mouse|control|control (ssRNA)
RNA: GGGAGUUCUACAGUCCGACGAUCGCCGCUGAGCAUGGUCAAAGCAUCCGAGACGCUUCACCCUGCCUAGGUUUUCCUGAGUGAUGAUGGAAGGUGGGGGGCUAACGCUGUCCGUGCCGCCGGGGCAGAAGCUCUUGGUAAUCCCAACAGAGGAUUGAGCAUCA
B19: chr7:97110809:97110810:-_ENSMUSG00000030619_ENSMUST00000107234|mus_mus|motif|central (ssRNA)
RNA: GGGAGUUCUACAGUCCGACGAUCACAAGACUUGGAAAGUAUCAAAUCGCCUAACCAUCGCACACAAUCAACAUAAUUCCGGUGUAUGUCUCUGGUAGAAAAGUCAGGAAAGUGGAUUUUCUGGGAAAUAAAUGGCCUGUUAGUCAACAGAGGAUUGAGCAUCA
B20: 104973726_104976136_736_3pUTR_ENSMUSG00000032563_ENSMUST00000142424|mouse|control|control (ssRNA)
RNA: GGGAGUUCUACAGUCCGACGAUCAUUUUAGUUCCAGGCCAGACUCUGGCAAUAUCCCCAGUUGAGAUAGCGCCAGGUCUCCUGUGGGUCUUUGUUUGACCAUGAGAAGCAGGUUGGCCUUUAAAUCCCCAUCUUUUCAUGACGCAACAGAGGAUUGAGCAUCA
B21: chr7:141445308:141445309:+_ENSG00000106028_ENST00000265304|hu_hu|hu_hu_hu_mus_False|8_68 (ssRNA)
RNA: GGGAGUUCUACAGUCCGACGAUCUAUGAUUGUUGUUGCUUGCCGCCUCACAUUGUUUUUAUCCAUGUAUUCACCAUAGUCCACUUUCCCUUCCACAAAUAUACGAGCCCCCUUUUUCACAUACUGAUAUGCCACGUCUCUGAGCAACAGAGGAUUGAGCAUCA
B22: chr1:39494447:39494448:+_ENSG00000168653_ENST00000372967|hu_mus|hu_hu_hu_mus_False|8_108 (ssRNA)
RNA: GGGAGUUCUACAGUCCGACGAUCGCAUCGACCAGCCUUCUUAUAGGGCUGUUCUGCGCUUAGGAACAUAAAGUGCCGGUCCAGGCUGAUGCCCAGCUUUUUCUGUAUGUCAAGGAAAGGCAUGGCUGAUGCUCGUGCUUGUCACAACAGAGGAUUGAGCAUCA

The other results are listed elsewhere or left out.

For the experiment, the target named is T1, UNK ZnF1-3 (human, UniProt Q9C0B0 31-174).
T1 sequence: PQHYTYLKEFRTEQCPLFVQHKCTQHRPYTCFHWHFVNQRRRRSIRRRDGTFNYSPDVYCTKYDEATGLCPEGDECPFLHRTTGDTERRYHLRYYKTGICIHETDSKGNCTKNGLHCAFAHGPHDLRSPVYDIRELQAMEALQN
The experiment can be described thus: nsRBNS (natural sequence RNA bind-n-seq); RBNS binding buffer (assumed for nsRBNS): 25 mM Tris pH 7.5, 150 mM KCl, 3 mM MgCl2, 0.01% Triton X-100, 500 ug/ml BSA, 20 U/ml SUPERase-In, 4 C; UNK is unkempt and MSI1 is Musashi-1; names of the RNAs are library labels; protein concentration not given here; high values mean tight binding.
B1 registered a binding signal of 1.65 enrichment R. B2 showed a binding signal of 1.14 enrichment R. The molecule B3 returned a binding signal of 1.32 enrichment R. In turn, B4 came in with a binding signal of 0.73 enrichment R. B5 showed a binding signal of 1.25 enrichment R. The result for B6 reads 0.485 enrichment R; that for B7, 1.58 enrichment R. The result for B8 reads 0.597 enrichment R; that for B9, 1.32 enrichment R; that for B10, 0.809 enrichment R.

B11 returned a binding signal of 0.666 enrichment R. The result for B12 reads 1.57 enrichment R; that for B13, 3.03 enrichment R. Consider B14, for which the binding signal amounted to 0.821 enrichment R.

B15 yielded a binding signal of 0.52 enrichment R. On to B16, for which the binding signal is 0.472 enrichment R. As to B17, the binding signal turned out to be 1.1 enrichment R. In the case of B18 it was 0.889 enrichment R; in that of B19, 1.64 enrichment R; in that of B20, 0.494 enrichment R. In the case of B21 it was 0.67 enrichment R; in that of B22, 0.563 enrichment R.
